Values marked as one replicate rest on one cluster of the flow cell; about a third of the high ones do not repeat.
System: ATP
Assay: switch fluorescence ratio, 500 uM ATP over buffer (Cy3 cluster intensity, sum of 5 cycles each) (fold (ratio)); higher = stronger signal-on switching upon ATP binding; sequences stand for … in TCGTCGGCAGCGTCAGATGTGTATAAGAGACAGTTTTTTTTTTTTTTTTTTTTTTTTT…TC
Conditions: aptamer strand: ATP DNA aptamer (quencher-CACCTGGGGGAGTATTGCGGAGGAAGG + anchor), 100 nM annealed; ATP concentration: 500 uM; one replicate
In short: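 Per cluster, summed Cy3 intensity from the target cycles was divided by that from the buffer cycles to give the fluorescence ratio, then averaged per switch-domain sequence. Clusters outside 100-1000 RFU were excluded. The Cy3-labelled switching-strand clusters, on a modified Illumina MiSeq flow-cell, were annealed to 100 nM quencher-labelled ATP aptamer and imaged in selection buffer, then after 15 min with 500 uM ATP at 22 °C, for five cycles with NaOH stripping and re-annealing between them.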
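Further: ATP exposure 15 min at 22 °C before imaging.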

Sequence | switch fluorescence ratio
TCCCACTCAC | 1.28
GTGTTGTAAT | 1.02
CCATTCTATT | 0.975
AACATGGTCG | 0.901
CGGGCTACGT | 0.97
AGTCAGTGTG | 1.03
TATATGCGCT | 1.01
CCCTGAATGT | 1.05
TGCAGATAGT | 1.16
TCGCTCGGTT | 0.996
AGCAGCTGAT | 0.994
CGAAGGAGTA | 0.948
ACGGTACCA | 1.48
AAATCAGAGG | 1.02
ATTTGCGGGT | 0.986
TGTGGGTAGC | 1.02
TCTTTATTCA | 1.03
TCCTTAGTTA | 0.995
TGCCTTTTGA | 1.05
AGACTCAAG | 0.987
CCGCTAGGGA | 0.989
TTTTCATTG | 0.971

Sequence | switch fluorescence ratio
CGTTTAAATA | 1.01
TTGTAGCGCT | 0.982
GCACTCAACG | 1.16
ACTGATCGGC | 1.07
ATGGGTGGTC | 0.989
TAAACTTCT | 1.02
GTGGGACTAC | 1.45
TATTCGGCTT | 0.976
AACCTTAACG | 1.17
CACCTTGGCA | 1.04
TCGAGACTTC | 0.998
GACGTTTGCA | 1.05
TTGCCGGGAC | 1.01
CATTAATAAG | 0.943
CGCTGTAAC | 1.58
ACCGGTCATA | 0.996
GATGATCGAG | 1.03
TGTACCCAGA | 1.08
CAGGTTACAG | 1.05
TCTCCAAGAT | 2.5
CGATTCTTGA | 1.01
GCGAGAAGAA | 0.956

Sequence | switch fluorescence ratio
TTTGAGTTG | 1.04
ACGGGAGGTT | 1.09
GGTTGGGTCG | 0.953
GAACCGTAAT | 1.53
AGAGTTAC | 0.986
AATCCATCGA | 0.97
TTAACACTTT | 1.04
ATAAGAATAT | 1.02
GAAAACGAGG | 1.07
CGATAAGTGA | 0.995
TCAATTCCG | 0.964
CCAAGCCAAC | 3.63
GAGCACGCCG | 0.997
TGGCAATCTT | 1.02
AACGGGTTCG | 1
GGATTATGAT | 0.999
TCGGCCGCCA | 1.39
GAGAATTGTG | 1
AGAACTACTT | 1.1
AGAGCCGTGG | 0.924
CACATGGGGA | 1.04
TACCTTACTG | 1.39

Sequence | switch fluorescence ratio
TTTAGATG | 1.01
AATTGGAGAG | 1.01
TATCATCTT | 1.01
ATTCCCTTTG | 1.08
CAGCTGCAAG | 1.18
TAATTTTCCC | 1.04
TTGAAAAGGA | 0.963
GCATCGTGCT | 1.02
TCGGGTTCTA | 1.03
CGCTTATTAT | 1.04
CAAGATGGGT | 0.995
CACGGCTAGG | 1.02
TTTTGGGCGA | 1.01
GTAATTAGGT | 0.988
ACAGTCAATG | 0.997
GAATTGGCCG | 0.97
GTTACTAGCC | 0.961
CTAGGATAG | 1.05
TCCAAGCGGG | 0.991

From the supplement of paper PMC10126150
